{
  "source": "paper PMC3726058",
  "about": "(European journal of pharmacology, 2010)",
  "biological_target": "σ1 receptor (Rattus norvegicus, UniProt Q9R0C9)",
  "sequence (Q9R0C9 whole entry)": "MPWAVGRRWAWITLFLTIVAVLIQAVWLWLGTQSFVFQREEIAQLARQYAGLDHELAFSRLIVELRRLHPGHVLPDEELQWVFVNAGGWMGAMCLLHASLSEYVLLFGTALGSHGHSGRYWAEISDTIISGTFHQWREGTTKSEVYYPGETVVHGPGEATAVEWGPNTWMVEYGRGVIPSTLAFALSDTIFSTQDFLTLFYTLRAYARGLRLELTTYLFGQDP",
  "assay": "SN56 competition versus [^3H]",
  "type": "binding",
  "data": [
    {"smiles": "CCCc1ccc2c(c1)sc(=O)n2CCN1CCCCCC1", "note": "[SN56, 3-(2-(azepan-1-yl)ethyl)-6-propylbenzo[d]thiazol-2(3H)-one]", "values": [
      {"measurement": "Ki", "result": 0.38, "unit": "nM"}
    ]}
  ]
}
